According to article PMC4336329 (PLoS ONE, 2015):
About 2,200 (0.71%) of roughly 310,000 compounds showed an effect of 50% or more. The effect is printed as a negative number. The list shows a part of the results.

Biological target: human ether-à-go-go-related gene (hERG) potassium channel (human, UniProt Q12809)
Test: primary screen, population patch clamp on CHO cells stably expressing hERG

Chain of human ether-à-go-go-related gene (hERG) potassium channel (Q12809 whole entry, looked up): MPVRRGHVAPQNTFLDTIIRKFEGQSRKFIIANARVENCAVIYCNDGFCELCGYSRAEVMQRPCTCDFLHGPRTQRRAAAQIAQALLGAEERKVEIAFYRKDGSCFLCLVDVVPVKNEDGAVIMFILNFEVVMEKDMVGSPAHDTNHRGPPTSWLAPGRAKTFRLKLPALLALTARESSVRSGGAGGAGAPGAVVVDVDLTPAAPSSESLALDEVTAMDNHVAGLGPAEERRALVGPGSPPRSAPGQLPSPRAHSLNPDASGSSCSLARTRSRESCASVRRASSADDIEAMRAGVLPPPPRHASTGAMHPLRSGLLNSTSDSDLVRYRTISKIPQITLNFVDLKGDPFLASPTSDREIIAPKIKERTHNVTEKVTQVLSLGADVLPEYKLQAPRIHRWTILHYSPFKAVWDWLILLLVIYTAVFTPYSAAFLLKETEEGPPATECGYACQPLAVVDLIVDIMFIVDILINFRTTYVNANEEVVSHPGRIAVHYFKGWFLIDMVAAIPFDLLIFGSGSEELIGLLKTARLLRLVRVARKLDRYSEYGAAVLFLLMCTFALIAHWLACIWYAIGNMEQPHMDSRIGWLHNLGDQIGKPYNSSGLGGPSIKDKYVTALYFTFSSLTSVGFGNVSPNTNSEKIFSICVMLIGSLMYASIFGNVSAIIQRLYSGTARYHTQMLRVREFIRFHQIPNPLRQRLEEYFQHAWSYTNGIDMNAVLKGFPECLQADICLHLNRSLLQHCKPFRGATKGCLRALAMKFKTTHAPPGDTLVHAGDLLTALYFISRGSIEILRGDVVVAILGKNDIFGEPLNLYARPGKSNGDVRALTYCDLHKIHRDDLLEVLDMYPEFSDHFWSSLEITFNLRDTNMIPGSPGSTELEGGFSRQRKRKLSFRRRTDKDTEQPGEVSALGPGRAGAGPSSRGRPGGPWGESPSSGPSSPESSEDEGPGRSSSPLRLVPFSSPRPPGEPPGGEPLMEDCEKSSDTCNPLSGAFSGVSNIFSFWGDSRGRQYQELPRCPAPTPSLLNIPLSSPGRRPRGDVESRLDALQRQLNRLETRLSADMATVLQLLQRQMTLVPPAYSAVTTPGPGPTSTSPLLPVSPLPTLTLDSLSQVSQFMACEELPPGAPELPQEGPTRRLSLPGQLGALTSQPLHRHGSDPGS

| SMILES | hERG current change (%, negative = inhibition) at 1uM [%] |
| --- | --- |
| Cc1ccc(-c2nn(-c3ccccc3)cc2CO)o1 | 10.3 |
| CC1C(C#N)=C(N)OC2=C1C(=O)CC(c1ccccc1)C2 (centres unmarked) | 8.16 |
| CC(C)OCCCNC(=O)C(NC(=O)c1ccc(Cl)cc1)C(C)C (centres unmarked) | 3.29 |
| Cc1c(N=C2SCC(=O)N2/N=C/c2ccccc2)c(=O)n(-c2ccccc2)n1C | -0.892 |
| Cc1cc(NC(=O)CSc2nnc(-c3ccccc3F)n2C)no1 | 8.69 |
| Cc1cc(=O)[nH]c2nnc(SCC(=O)N3CC(C)OC(C)C3)n12 (centres unmarked) | 11.3 |
| Cc1cc(C)nc(NS(=O)(=O)c2ccc(N/C=C\C(=O)c3ccc(Cl)cc3)cc2)n1 | 2.76 |
| CC1=C(N2CCOCC2)CCC1=O | 13.7 |
| Cc1cc(C)c(C)c(OCC(O)CN2CCN(c3ccccn3)CC2)c1.Cl (centres unmarked) | -6.06 |
| COc1ccccc1/C=C1/SC(=S)N(C(C)C(=O)NC2C=CS(=O)(=O)C2)C1=O (centres unmarked) | 13 |
| COC(=O)C1=C(C)NC(C)=C(C(=O)OC)C1c1cc2cc(C)ccc2[nH]c1=O | 10.1 |
| C=CCOc1c(Br)cc(CNc2ccc(NC(=O)C(C)C)cc2)cc1OCC | 4.09 |
| CCCc1nc2n[nH]c(N)c2c2c1COC(C)(C)C2 | -9.95 |
| CCOC(=O)C1=C(C)Nc2nc3ccccc3n2C1c1ccncc1 (centres unmarked) | 8.17 |
| COc1ccc(Oc2coc3cc(OC(=O)/C=C/c4ccccc4)ccc3c2=O)cc1 | 0.507 |
| N#Cc1ccccc1OCC(=O)N1CCc2ccccc2C1 | 5.41 |
| Cc1cccc(C(=O)Nc2sc(C(=O)N3CCCC3)c(C)c2C#N)c1 | 13.8 |
| Cc1cc(C)nc(-n2c(C)nc3cc(Cl)ccc3c2=O)c1 | 15.2 |
| CC1C(=O)Nc2ccc(S(=O)(=O)NCCc3ccc(Cl)cc3)cc2NC1=O (centres unmarked) | 14.3 |
| CCCn1c(/C=C/c2ccco2)nc2ccccc21 | 14.2 |
| COc1ccc(C(=O)/C=C/c2ccccc2F)c(OC(=O)c2ccc([N+](=O)[O-])cc2)c1 | 8.58 |
| COc1ccc(C(=O)NN(C)c2nc(-c3ccccc3)nnc2C(F)(F)F)cc1 | 10.1 |
| CSc1nccc(N/N=C/c2ccccc2)n1 | 15.5 |
| COc1ccc(OC)c(/C=N/NC(=O)CNC(=O)c2cccc3ccccc23)c1 | 11.2 |
| O=C1C(=O)N(Cc2ccncc2)C(c2cccc(O)c2)/C1=C(\O)c1ccc2c(c1)OCCO2 (centres unmarked) | 17 |
| Cc1cc(C)nc(N/N=C/c2c(C)oc3ccccc23)n1 | 8.73 |
| COc1cc[n+](OC(=O)N2CCCCC2)c(C)c1.c1ccc([B-](c2ccccc2)(c2ccccc2)c2ccccc2)cc1 | 4.96 |

| SMILES | hERG current change (%, negative = inhibition) at 1uM [%] |
| --- | --- |
| COCCNC(=S)Nc1ccc(S(=O)(=O)Nc2cnc3ccccc3n2)cc1 | 3.04 |
| Cc1ccc(CN2C(=O)c3ccccc3NC2c2ccccn2)cc1 (centres unmarked) | 12.5 |
| CC1CCN(CCCNC(=O)c2cc3c(s2)-c2ccccc2OC3)CC1 | -6.03 |
| Cc1cc(C)nc(SCC(=O)OCC(=O)Nc2ccccc2)n1 | 7.19 |
| CCCN1C(=O)C(NC(C)=O)c2cc(OC)ccc21 (centres unmarked) | 22.7 |
| O=C(NC1CC1)C1=C[C@@H](c2ccc(C(F)(F)F)cc2)C[C@@H](OCCCCO)O1 | 4.02 |
| N#CC1=C(N)N(c2ccccc2)C2=C(C(=O)CCC2)C1c1ccsc1 (centres unmarked) | -11.2 |
| Cc1ccc(C(C)C)c(OCc2nn(CC(=O)c3ccc(OC(F)F)cc3)c3[n+]2CCCCC3)c1.[Br-] | -14.2 |
| O=C(CCc1ccc(CCC(=O)c2cccs2)s1)c1cccs1 | 14.9 |
| CCOc1cccc2sc(N(CCN(C)C)C(=O)c3cc4ccccc4cc3OC)nc12.Cl | -8.58 |
| COc1ccccc1NC(=O)c1cc[n+]([O-])cc1 | 14.3 |
| Oc1cccc(/C=N/Nc2ncnc3c2ncn3Cc2ccccc2)c1 | 0.545 |
| O=C(O)c1ccc(Cl)c(NC(=S)NC(=O)c2cccc(COc3ccccc3)c2)c1 | 19.2 |
| C/C(=N\Nc1cccc(Cl)c1)c1ccc(-n2ccnc2)cc1 | 7.01 |
| CCC1=C(OC(=O)N(CC)CC)N2C(=O)OC(=NCCc3c[nH]c4ccccc34)[C@]2(Cc2ccccc2)[C@H]2C1=CC[C@H]1C(=O)NC(=O)[C@H]12 | 13.2 |
| CCC(CC)N1CCN(Cc2nc3ccc([N+](=O)[O-])cc3c(=O)n2-c2ccccc2F)CC1 | -28.8 |
| O=C(N1CCOCC1)N1CCN(S(=O)(=O)c2ccc(F)cc2)CC1 | 9.95 |
| CN(C)S(=O)(=O)c1ccc(N2CCCC2)c(C(=O)N2CCN(S(=O)(=O)c3ccccc3F)CC2)c1 | 10.2 |
| CCOC(=O)C1(CCc2ccccc2)CCN(C2Cc3ccccc3C2)CC1 | -18.7 |
| CC1CCN(CCCN2C(=O)C3C(C(=O)Nc4cccc(Cl)c4)C4C=CC3(O4)C2C(=O)NC2CCCCC2)CC1 (centres unmarked) | 11.7 |
| C/C(=N\NC(=O)c1cc(-c2ccc(C)s2)[nH]n1)c1ccncc1 | 11.8 |
| Cc1ccc(N(C)S(=O)(=O)c2cccc(C(=O)NC3CC(C)(C)NC(C)(C)C3)c2)cc1 | 9.04 |
| Cn1c(C(=O)OC(C(=O)NC2CCCC2)c2cccnc2)cc2sccc21 (centres unmarked) | 7.64 |
| COCc1c(C(=O)N2CCN(Cc3ccc4c(c3)OCO4)CC2)oc2ccccc12 | 10.2 |
| CCOC(=O)N1CCN(c2c(NCc3ccccn3)c(=O)c2=O)CC1 | 8.73 |
| O=C(NCCc1ccccc1)c1ccccc1[N+](=O)[O-] | 11.5 |
